For this test, the target named is T1, BRAF^V600E-LgBiT (UniProt P15056, V600E).
T1 construct: source: HEK293T, transiently transfected (PEI); in living cells; not shown: HA, N-terminal, kept; LgBiT (158 aa, joined by a 15 aa G/S linker), C-terminal, kept
The experiment in a line: split reporter (BiFC, NanoBiT); living HEK293T cells co-transfected with a LgBiT and a SmBiT fusion plus empty pMIG or pMIG/KRAS^G12V; 96-well plate, Furimazine (Vivazine or Endurazine for long-term runs); with DMSO, 10 µM Sorafenib or other RAF/MEK inhibitors for 4 h, or 100 ng/ml EGF. To be noted: partners not purified.

The results in this text go back to PMC10265822, “Analysis of RAS and drug induced homo- and heterodimerization of RAF and KSR1 proteins in living cells using split Nanoluc luciferase” (Cell Communication and Signaling : CCS, 2023).

B1: BRAF^V600E-SmBiT (natural protein)
chain: not shown
notes: source: HEK293T, transiently transfected (PEI); in living cells; not shown: HA, N-terminal, kept; SmBiT (11 aa, joined by a 15 aa G/S linker), C-terminal, kept
B1: the “fold dimer formation (luminescence) over the wild-type BRAF-LgBiT/BRAF-SmBiT pair” value was roughly 4 fold.
